Test results: a collection of fitness landscapes (doi:10.1016/j.celrep.2020.107928)
Whole data set: some 81,000 sequences, median “one-hybrid fitness for binding NBS DNA” near -0.1, cut for the highest 2% near 0.36. The list shows a part of the results.

B1: Caulobacter ParB omega fusion; a variant is named by its letters at X, in order, B8GW30 (parent)
chain: MESVVVGEPGMSEGRRGLGRGLSALLGEVDAAPAQAPGEQLGGSREAPIEILQRNPDQPRRTFREEDLEDLSNSIREKGVLQPILVRPSPDTAGEYQIVAGERAWRAAQRAGLKTVPIMVRELDDLAVLEIGIIENVQRADLNVLEEALSYKVLMEKFERTQENIAQTIGKSXSHVANXMRLLXLPDEVQSYLVSGELTAXHARAIAAAADPVALAKQIIEGGLSVRETEALARKAPNLSAGKSKGGRPPRVKDTDTQALESDLSSVLGLDVSIDHRGSTGTLTITYATLEQLDDLCNRLTRGI

Variants of: B1
Assay: one-hybrid fitness for binding NBS DNA (the Noc-binding site; scaled: cognate 1, non-cognate 0); higher = stronger binding
Conditions: with NBS DNA site
Outline: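 On M9-minus-histidine containing 0.1 mM IPTG and 5 mM 3-AT, E. coli USO cells with a HIS3 reporter, site 19 bp from the promoter, grew 48 hours at 37°C to select Caulobacter ParB libraries randomised at four specificity codons. Plasmids from before and after were Illumina-sequenced, with three replicate libraries pooled and variants under 10 reads left out. Fitness is the log change in variant-to-wild-type read ratio, rescaled against cognate and non-cognate.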

| Variant | one-hybrid fitness for binding NBS DNA |
| --- | --- |
| DISI | ≤ 0.2 |
| IVWC | ≤ 0.2 |
| NFRS | ≤ 0.2 |
| METF | ≤ 0.2 |
| MGLT | ≤ 0.2 |
| YMQR | ≤ 0.2 |
| QRVM | 0.265 |
| VDID | ≤ 0.2 |
| YRAT | ≤ 0.2 |
| EIKM | ≤ 0.2 |
| RNGE | ≤ 0.2 |
| TMPN | ≤ 0.2 |
| VRGK | ≤ 0.2 |
| YNWT | ≤ 0.2 |
| LCVL | ≤ 0.2 |
| DDTF | ≤ 0.2 |
| NQLN | ≤ 0.2 |
| MTSL | ≤ 0.2 |
| DTTD | ≤ 0.2 |
| LYLV | ≤ 0.2 |
| GWDC | ≤ 0.2 |
| ELEC | ≤ 0.2 |
| PSAV | ≤ 0.2 |
| LPYM | ≤ 0.2 |
| QRPD | ≤ 0.2 |
| VPTV | ≤ 0.2 |

| Variant | one-hybrid fitness for binding NBS DNA |
| --- | --- |
| VYML | ≤ 0.2 |
| NRAF | ≤ 0.2 |
| ALCA | ≤ 0.2 |
| RHNA | 0.219 |
| PRWN | ≤ 0.2 |
| RFAK | ≤ 0.2 |
| MRDC | ≤ 0.2 |
| TQTC | ≤ 0.2 |
| DSMA | ≤ 0.2 |
| ALDG | ≤ 0.2 |
| GLDS | ≤ 0.2 |
| QSIV | ≤ 0.2 |
| RQRA | 0.341 |
| CWQR | ≤ 0.2 |
| KSNF | ≤ 0.2 |
| ARTF | ≤ 0.2 |
| KQTS | ≤ 0.2 |
| QCPY | ≤ 0.2 |
| PYKF | ≤ 0.2 |
| TDRP | ≤ 0.2 |
| STDM | ≤ 0.2 |
| MITR | ≤ 0.2 |
| SGLH | ≤ 0.2 |
| QTRY | 0.685 |
| PREC | ≤ 0.2 |
| RMMV | ≤ 0.2 |

| Variant | one-hybrid fitness for binding NBS DNA |
| --- | --- |
| GRTR | ≤ 0.2 |
| PCTL | ≤ 0.2 |
| PYKA | ≤ 0.2 |
| LGGR | ≤ 0.2 |
| PTHE | ≤ 0.2 |
| EPVC | ≤ 0.2 |
| DCIM | ≤ 0.2 |
| QVVY | ≤ 0.2 |
| GQFC | ≤ 0.2 |
| DGSD | ≤ 0.2 |
| KTFV | ≤ 0.2 |
| QGVM | ≤ 0.2 |
| VNAN | ≤ 0.2 |
| IAYG | ≤ 0.2 |
| QNAR | ≤ 0.2 |
| LMSF | ≤ 0.2 |
| SIML | ≤ 0.2 |
| IPDY | ≤ 0.2 |
| LTFV | ≤ 0.2 |
| THNI | ≤ 0.2 |
| GELK | ≤ 0.2 |
| VDDL | ≤ 0.2 |
| NATY | ≤ 0.2 |
| TQVV | ≤ 0.2 |
| TCAW | ≤ 0.2 |
| SYLA | ≤ 0.2 |

| Variant | one-hybrid fitness for binding NBS DNA |
| --- | --- |
| RWNQ | ≤ 0.2 |
| MYEG | ≤ 0.2 |
| AAAG | ≤ 0.2 |
| CFQG | ≤ 0.2 |
| DQHS | ≤ 0.2 |
| WGAA | ≤ 0.2 |
| KQWR | ≤ 0.2 |
| CFNE | ≤ 0.2 |
| YHLC | ≤ 0.2 |
| LSWN | ≤ 0.2 |
| MTTC | ≤ 0.2 |
| KHVR | ≤ 0.2 |
| CDSC | ≤ 0.2 |
| KHPI | ≤ 0.2 |
| TALT | ≤ 0.2 |
| TDTM | ≤ 0.2 |
| TCYR | ≤ 0.2 |
| ETNQ | ≤ 0.2 |
| NPEG | ≤ 0.2 |
| CYDR | ≤ 0.2 |
| HFAG | ≤ 0.2 |
| QDVI | ≤ 0.2 |
| PPMV | ≤ 0.2 |
| LESW | ≤ 0.2 |
| QSAF | ≤ 0.2 |
| IQLP | ≤ 0.2 |

| Variant | one-hybrid fitness for binding NBS DNA |
| --- | --- |
| MESK | ≤ 0.2 |
| MLCM | ≤ 0.2 |
| CCER | ≤ 0.2 |
| LLKE | ≤ 0.2 |
| SLTQ | ≤ 0.2 |
| QVNH | ≤ 0.2 |
| IVLW | ≤ 0.2 |
| KFRE | ≤ 0.2 |
| LATV | ≤ 0.2 |
| NVIC | ≤ 0.2 |
| VTGV | ≤ 0.2 |
| RWEL | ≤ 0.2 |
| WFTC | ≤ 0.2 |
| QKNQ | 0.245 |
| IMKS | ≤ 0.2 |
| HAVW | ≤ 0.2 |
| CFLS | ≤ 0.2 |
| GMYS | ≤ 0.2 |
| LCMV | ≤ 0.2 |
| TWDF | ≤ 0.2 |
| IMTW | ≤ 0.2 |
| TMHM | ≤ 0.2 |
| TYTK | ≤ 0.2 |
| DTEY | ≤ 0.2 |
| TGRH | ≤ 0.2 |
| TSYM | ≤ 0.2 |

| Variant | one-hybrid fitness for binding NBS DNA |
| --- | --- |
| VFSC | ≤ 0.2 |
| QSEE | ≤ 0.2 |
| RNSL | ≤ 0.2 |
| MNSS | ≤ 0.2 |
| GNHA | ≤ 0.2 |
| DHLS | ≤ 0.2 |
| AYFL | ≤ 0.2 |
| GGRI | ≤ 0.2 |
| GDIL | ≤ 0.2 |
| RGQW | ≤ 0.2 |
| QHQN | ≤ 0.2 |
| TWST | ≤ 0.2 |
| QKYA | 0.249 |
| LSSY | ≤ 0.2 |
| LDVA | ≤ 0.2 |
| LRIG | ≤ 0.2 |
| MMDT | ≤ 0.2 |
| NSCD | ≤ 0.2 |
| MPPL | ≤ 0.2 |
| MTSR | ≤ 0.2 |
| VKGR | ≤ 0.2 |
| GSVP | ≤ 0.2 |
| SFHC | ≤ 0.2 |
